Assay results as given in PMC7926352, “Synthesis, Characterization and In Vitro Evaluation of Novel 5-Ene-thiazolo[3,2-b][1,2,4]triazole-6(5H)-ones as Possible Anticancer Agents” (Molecules, 2021).
Read-outs that look alike come from different tables or passages of the source.

System: NCI-H322M
Procedure: The primary anticancer assay was performed on a panel of approximately sixty human tumor cell lines derived from nine neoplastic diseases (leukemia, melanoma, lung, colon, CNS, ovarian, renal, prostate, and breast cancers), in accordance with the protocol of the National Cancer Institute Drug Evaluation Branch (Bethesda, MD, USA). Tested compounds were added to the culture at a single concentration (10^−5 M) and the cultures were incubated for 48 h. End-point determinations were made with a protein-binding dye, sulforhodamine B (SRB). Results for each tested compound were reported as the percentage of the growth of the treated cells when compared to the untreated control cells. The percentage of the growth was evaluated spectrophotometrically versus controls not treated with test agents. […] Using absorbance measurements [time zero (Tz), control growth in the absence of drug (C), and test growth in the presence of the drug (Ti)], the percentage growth was calculated for each drug concentration. Percentage growth inhibition was calculated as:[(Ti − Tz)/[…]] × 100(1) for concentrations for which Ti ≥ Tz, [(Ti − Tz)/Tz] × 100 for concentrations for which Ti < Tz. Dose-response parameters (GI50, TGI) were calculated for each compound. Growth inhibition of 50% (GI50) was calculated from [(Ti − Tz)/(C − Tz)] × 100 = 50, which is the drug concentration resulting in a 50% lower net protein increase in the treated cells (measured by SRB staining) as compared to the net protein increase seen in the control cells. The drug concentration resulting in total growth inhibition (TGI) was calculated from Ti = Tz. Values were calculated for each of these parameters if the level of activity was reached; however, if the effect was not reached or was excessive, the value for that parameter was expressed as more or less than the maximum or minimum concentration tested. The lowest values were obtained with the most sensitive cell lines. Compounds having GI50 values ≤ 100 μM were declared to be active. The selectivity index (SI) calculated by dividing the full panel MG_MID (full-panel mean-graph midpoint) (μM) of the compounds 2h and 2i by their individual subpanel MG_MID of a cell line (μM) was considered as a measure of compounds’ selectivity. Ratios between 3 and 6 mean moderate selectivity, ratios greater than 6 indicate high selectivity toward the corresponding cell line, while compounds not meeting either of these criteria are rated nonselective.

Q: Which CC50 does the source give for “Ethyl(Z)-4-(3-(4-chloro-2-((6-oxothiazolo[3,2-b][1,2,4]triazol-5(6H)-ylidene)methyl)phenyl)propanamido)benzoate [Compound 2i]” here?
A: 53.7 µM

Q: And the GI50 (NCI-H322M, NSCLC)?
A: 15.1 µM

Q: What about the TGI (NCI-H322M, NSCLC) of the same compound?
A: 28.84 µM

Q: Which GI50 (Homo sapiens, NCI-H322M) does the source give for `O=C(COc1ccc(Cl)cc1/C=c1\sc2ncnn2c1=O)Nc1ccc(Cl)cc1` [Compound 2h, (Z)-2-(4-Chloro-2-((6-oxothiazolo[3,2-b][1,2,4]triazol-5(6H)-ylidene)methyl)phenoxy)-N-(4-chlorophenyl)acetamide] here?
A: 13.2 µM

Q: And the CC50 (Homo sapiens, NCI-H322M, read-out: LC50)?
A: 51.3 µM

Q: And the TGI (NCI-H322M, NSCLC)?
A: 25.70 µM
